The source of these data is a collection of fitness landscapes (doi:10.1126/science.1257360).

B1: PhoQ; a variant is named by its letters at X, in order, P23837 (parent)
chain: MKKLLRLFFPLSLRVRFLLATAAVVLVLSLAYGMVALIGYSVSFDKTTFRLLRGESNLFYTLAKWENNKLHVELPENIDKQSPTMTLIYDENGQLLWAQRDVPWLMKMIQPDWLKSNGFHEIEADVNDTSLLLSGDHSIQQQLQEVREDDDDAEMTHSVAVNVYPATSRMPKLTIVVVDTIPVELKSSYMVWSWFIYVLSANLLLVIPLLWVAAWWSLRPIEALAKEVRELEEHNRELLNPATTRELTSLVRNLNRLLKSERERYDKYRTTLTDLTHSLKTPLXXLQXXLRSLRSEKMSVSDAEPVMLEQISRISQQIGYYLHRASMRGGTLLSRELHPVAPLLDNLTSALNKVYQRKGVNISLDISPEISFVGEQNDFVEVMGNVLDNACKYCLEFVEISARQTDEHLYIVVEDDGPGIPLSKREVIFDRGQRVDTLRPGQGVGLAVAREITEQYEGKIVAGESMLGGARMEVIFGRQHSAPKDE

The list shows a part of the results.

In the experiment the parent is B1. The experiment can be described thus: enrichment ratio after two sorts for PhoP signalling (ratio (wild type AVST 3.29)); higher = more functional. The conditions noted are these: with PhoP (E. coli).
Consider MNKQ, for which the enrichment ratio was not above 0.25. To NQYV belongs not above 0.25; to GRMV, not above 0.25; to KDDF, not above 0.25. The value for VFFK was not above 0.25; that for GLYF was not above 0.25. The value for DWAT was not above 0.25.

As for ALIM, the enrichment ratio was found to be 1.8. In the case of MGPV, the enrichment ratio is not above 0.25. Regarding PGPA, the enrichment ratio is not above 0.25. To SKNC belongs not above 0.25; to YTHW, not above 0.25; to LDTQ, not above 0.25.

YHFI: the enrichment ratio is not above 0.25.

FIYF: the enrichment ratio was not above 0.25. For the variant YWSL, the enrichment ratio was not above 0.25. To TVRK belongs not above 0.25; to LMWL, 0.616.

As for NQAS, the enrichment ratio is not above 0.25. In the case of RCES, the enrichment ratio was not above 0.25.

For the variant GSVS, the enrichment ratio is 0.508. As for MFFP, the enrichment ratio is not above 0.25. For NNAC, the enrichment ratio is not above 0.25. As to PLQA, the enrichment ratio was not above 0.25. For IPVP, the enrichment ratio was not above 0.25. The value for VGTT was not above 0.25; that for GKGH was not above 0.25; that for SNVS was 10.6. Take WKTV: the enrichment ratio is not above 0.25.

For SVQK, the enrichment ratio worked out at 0.89. On to DDKN, for which the enrichment ratio was not above 0.25.

For the variant WPTS, the enrichment ratio was not above 0.25. With IEPD, the enrichment ratio is not above 0.25.

With SYRN, the enrichment ratio is not above 0.25. As for APEL, the enrichment ratio was not above 0.25. HMKV: the enrichment ratio is not above 0.25.

Consider YSPE, for which the enrichment ratio is not above 0.25.

As for VFSI, the enrichment ratio was not above 0.25. The value for DKHP was not above 0.25. To YAFA belongs not above 0.25; to PCSF, not above 0.25.

For the variant DVFK, the enrichment ratio is not above 0.25. To RAFT belongs not above 0.25. The value for DCMC was not above 0.25; that for VWYV was not above 0.25; that for YYAY was not above 0.25.

Regarding RGSH, the enrichment ratio was not above 0.25. To GNQP belongs not above 0.25. The value for FSIV was 2.95; that for IRRY was not above 0.25; that for LDEC was not above 0.25. The value for PQCC was not above 0.25. Regarding WESV, the enrichment ratio was not above 0.25. The value for YCMG was not above 0.25; that for TYDD was not above 0.25. On to QPHS, for which the enrichment ratio was not above 0.25. The value for ELRI was not above 0.25; that for CILH was not above 0.25; that for ISAN was not above 0.25.

For the variant WEIC, the enrichment ratio was not above 0.25. For WEYF, the enrichment ratio is not above 0.25.

As to NFSY, the enrichment ratio is not above 0.25. On to REEA, for which the enrichment ratio was not above 0.25. With RNPH, the enrichment ratio was not above 0.25.

Take RYFM: the enrichment ratio was not above 0.25. The value for DEKV was not above 0.25.

Consider DHFE, for which the enrichment ratio is not above 0.25. As for LDYR, the enrichment ratio is not above 0.25.

Consider TVHI, for which the enrichment ratio was determined as 2.95.

IAIM: the enrichment ratio was not above 0.25. With MNYT, the enrichment ratio is not above 0.25.

Regarding HEGR, the enrichment ratio was not above 0.25. To TPVV belongs not above 0.25. As to IGHE, the enrichment ratio is not above 0.25. To GYNR belongs not above 0.25. To MSQC belongs not above 0.25; to LGQP, not above 0.25. To WDSR belongs not above 0.25. As for IWDF, the enrichment ratio is not above 0.25. For the variant VVKC, the enrichment ratio was not above 0.25. With RSDY, the enrichment ratio was not above 0.25. Take DSAI: the enrichment ratio is not above 0.25. To SLSP belongs not above 0.25; to QDWE, not above 0.25; to KGVY, not above 0.25. On to SMMC, for which the enrichment ratio stood at 16.1. For YHLV, the enrichment ratio is not above 0.25. To FVHN belongs not above 0.25; to VQWL, not above 0.25. To SEYR belongs not above 0.25. For VRCM, the enrichment ratio was not above 0.25. Turning to YYWL, the enrichment ratio was not above 0.25. Turning to MFFD, the enrichment ratio is not above 0.25.

Take ENLI: the enrichment ratio is not above 0.25. Consider FALD, for which the enrichment ratio was not above 0.25. For RTYI, the enrichment ratio was not above 0.25.

In the case of VWAM, the enrichment ratio is not above 0.25. In the case of KLAR, the enrichment ratio is not above 0.25. The value for EMYA was not above 0.25. Regarding NTKF, the enrichment ratio is not above 0.25. For the variant VVTF, the enrichment ratio was not above 0.25. For the variant YVTR, the enrichment ratio was not above 0.25. In the case of FVGY, the enrichment ratio was not above 0.25.

Consider NGTE, for which the enrichment ratio is not above 0.25. As to PADP, the enrichment ratio is not above 0.25.

With AQVV, the enrichment ratio was found to be 6.19. For PEPY, the enrichment ratio was not above 0.25.

Consider NLSC, for which the enrichment ratio was not above 0.25.

With SYSD, the enrichment ratio is not above 0.25. As for GECA, the enrichment ratio worked out at 1.47. For KRKA, the enrichment ratio was not above 0.25.

For EWKS, the enrichment ratio is not above 0.25. The value for HHMM was not above 0.25. Regarding VGNT, the enrichment ratio is not above 0.25.

With ECTN, the enrichment ratio is not above 0.25. Consider MENL, for which the enrichment ratio was not above 0.25. The value for IMNF was not above 0.25; that for NMKG was not above 0.25; that for PVMS was not above 0.25. On to MVWI, for which the enrichment ratio is not above 0.25. To EFTD belongs not above 0.25; to SDMW, not above 0.25. As for HRYI, the enrichment ratio was not above 0.25. Turning to VAWC, the enrichment ratio was not above 0.25. To LFVM belongs not above 0.25; to DRRI, not above 0.25; to VWWK, not above 0.25. The value for AKRA was not above 0.25; that for IPSS was not above 0.25; that for ADTG was not above 0.25. Regarding TWHG, the enrichment ratio was not above 0.25. For ARQY, the enrichment ratio was not above 0.25. Turning to HFKD, the enrichment ratio was not above 0.25. The value for KNMG was not above 0.25; that for VDLD was not above 0.25; that for ERQW was not above 0.25.

With MKQY, the enrichment ratio was not above 0.25. To SKAF belongs not above 0.25. The value for VVMN was not above 0.25; that for RVDK was not above 0.25; that for MGCI was 5.38. Regarding PVMH, the enrichment ratio was not above 0.25.

In the case of MSTN, the enrichment ratio was not above 0.25. On to YMHV, for which the enrichment ratio is not above 0.25. Take NRTG: the enrichment ratio is not above 0.25. With RICN, the enrichment ratio is not above 0.25. As for QIRR, the enrichment ratio was not above 0.25. Take FLAC: the enrichment ratio is not above 0.25. On to GTRE, for which the enrichment ratio is not above 0.25.

As to NCIA, the enrichment ratio is not above 0.25. The value for GQNV was not above 0.25; that for KIYA was not above 0.25. Regarding HTNI, the enrichment ratio is not above 0.25.
